The whole screen tested about 300,000 compounds, of which about 1,200 (0.4%) were called active. The inconclusive results got no clear call from the source; some entries with a clear call stand among them for comparison. Calls follow the shape of the dose curve; as a rule, active = well fitted inhibition curve with a large enough effect; inconclusive = small, poorly fitted or top-dose-only effect, or another doubt; inactive = no such curve, though single readings can be large or run the other way. Potencies beside an inconclusive call are fits to weak or partial responses and may not hold up.
biological target: Lysosomal alpha-glucosidase (Homo sapiens) (UniProt P10253); assay: qHTS Assay for Inhibitors and Activators of Human alpha-Glucosidase Cleavage of Glycogen; conditions: recombinant GAA, glycogen substrate, Amplex Red glucose oxidase fluorescence; activity change, negative = inhibition: at 76.4 µM (top of the series) unless noted;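 as to activity change, negative = inhibition: 0% = full enzyme reaction and -100% = no-enzyme basal signal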
Summary of the method: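 qHTS, 1536-well; enzyme 4 nM final; cpd up to 77 uM; substrate bovine liver glycogen 30 ug; 50 mM citrate/phosphate pH 5.0, 0.01% Tween-20; 37 C, 40 min; Amplex Red detection 45 min RT; Hill fit → AC50.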
Potency is read from the fitted curve at half-maximal effect.

Structure (SMILES) | Potency | activity change, negative = inhibition
COc1ccccc1-c1cn[nH]c(=S)n1 | inconclusive: 24.9 µM [inhibitor, single point] | –
COc1cc(/C=C/C(=O)OCC(=O)NC(=O)NC(C)C)ccc1O | inconclusive: 22.2 µM [inhibitor, single point] | –
COC(=O)c1ccc(COc2ccccc2/C=N/Nc2cccc(C(=O)O)c2)cc1 | inconclusive: 28.2 µM [inhibitor, partial curve] | –
Brc1ccc(C2=Nc3cccc4cccc(c34)N2)o1 | inconclusive: 20 µM [inhibitor, single point] | –
CCn1c(CCCCc2n[nH]c(=S)n2CC)n[nH]c1=S | inconclusive: 44.7 µM [inhibitor, partial curve] | –
COc1cc(/C=C2/CCCC(C(=O)C(F)(F)F)=C2O)ccc1O | inconclusive: 31.6 µM [inhibitor, partial curve] | –
CC1=[N+](C)N(c2ccccc2)C(=O)C1N=Cc1ccc(Cl)cc1 (stereo not given) | inconclusive: 3.16 µM [inhibitor, partial curve] | –
O=C1NC(=O)C(c2ccccc2[N+](=O)[O-])=C1Nc1ccc(O)c(Cl)c1 | inconclusive: 22.4 µM [inhibitor, partial curve] | –
Cc1c(C)c2ccc(OCC(=O)NC(Cc3c[nH]c4ccc(O)cc34)C(=O)O)c(C)c2oc1=O (stereo not given) | inconclusive: 7.94 µM [inhibitor, full curve] | –
CC(C)NC(=S)NN=C1CCC(c2ccccc2)CC1 (stereo not given) | inconclusive: 35.5 µM [inhibitor, single point] | –
Cn1c(N)c(N2CCCCC2)c(=O)n(CC(=O)Nc2ccc(Cl)c(Cl)c2)c1=O | inconclusive: 39.8 µM [inhibitor, partial curve] | –
CC(C)NC(=O)c1cc2c(C(F)(F)F)nn(C)c2s1 | – | inconclusive: 45.7% [activator]
COC(=O)/C(=N/Nc1ccccc1)N1CCCc2ccccc21 | inconclusive: 28.2 µM [inhibitor, partial curve] | –
CCOc1cc(/C=N/NC(=O)C(=O)NCc2cccnc2)ccc1O | inconclusive: 31.6 µM [inhibitor, partial curve] | –
Cc1cc([N+](=O)[O-])nn1CC(=O)NNC(=S)Nc1ccc([N+](=O)[O-])cc1 | inconclusive: 35.5 µM [inhibitor, single point] | –
C#CCOc1ccc(C2C(C(=O)OC)=C(C)NC3=C2C(=O)c2ccccc23)cc1OCC (stereo not given) | inconclusive: 11.2 µM [inhibitor, partial curve] | –
CC(=O)Nc1sc(N/N=C/c2ccc(O)cc2)nc1-c1ccc(C)cc1 | inconclusive: 20 µM [inhibitor, partial curve] | –
CC(C)CN(CC(C)C)c1nnc(N)s1 | inconclusive: 7.94 µM [inhibitor, full curve, poor fit] | –
COc1ccc(Cl)cc1N1C(=O)CC(N2CCc3ccccc32)C1=O (stereo not given) | inconclusive: 14 µM [inhibitor, partial curve] | –
Cn1ccnc1SCC(=O)c1ccc(C#N)cc1 | inconclusive: 39.8 µM [inhibitor, single point] | –
Cc1cc(Br)ccc1SCC(=O)OCC(=O)NC1CC1 | – | inactive: -13.2%
Cc1oc2c(C)c3oc(=O)c(CCC(=O)N4CCCCC4)c(C)c3cc2c1C | – | inactive: -12.2% [at 76.3 µM]
CCC/C=N/Nc1nc2ccccc2s1 | inconclusive: 9.92 µM [inhibitor, partial curve] | –

Structure (SMILES) | Potency | activity change, negative = inhibition
O=C(NC(=S)NCc1nc2ccccc2[nH]1)c1ccc(F)cc1 | inconclusive: 39.8 µM [inhibitor, partial curve] | –
Oc1ccc2ccccc2c1/C=N/Nc1ccccc1 | – | inactive: -27.1%
COc1ccc(/C=N/Nc2nc(-c3ccc(C)cc3)c(NC(C)=O)s2)cc1OC | inconclusive: 31.6 µM [inhibitor, single point] | –
CNC(=S)c1cc(C(C)(C)C)c(O)c(C(C)(C)C)c1 | inconclusive: 50.1 µM [inhibitor, single point] | –
Clc1ccc(-c2nc3ccccn3c2CN2CCOCC2)cc1 | – | inactive: -0.0854%
C/C(=N\Nc1ccccc1)c1cccc(N)c1 | inconclusive: 28.2 µM [inhibitor, single point] | –
Cc1cc(C)nc(SCC(=O)Nc2ccc(S(=O)(=O)Nc3ncccn3)cc2)n1 | active: 3.55 µM | –
O=C1Nc2ccccc2/C1=N\N=C\c1ccc(O)c(O)c1 | active: 6.31 µM | –
Cc1cccc(NNC(=O)C2CCC2)c1 | active: 7.94 µM | –
COc1ccc(N/N=C(C)/C(=N/O)C(=O)Nc2ccccc2)cc1 | inconclusive: 31.6 µM [inhibitor, partial curve] | –
CCOC(=O)c1c2n(c3ccc(O)cc13)CCC2 | inconclusive: 2 µM [inhibitor, full curve, poor fit] | –
N#Cc1cc(-c2ccccc2)nc(NN)n1 | inconclusive: 39.8 µM [inhibitor, partial curve] | –
CC1CCCCC1NC(=O)c1ccc(S(=O)(=O)NNC(=O)c2ccncc2)cc1 (stereo not given) | inconclusive: 6.31 µM [inhibitor, partial curve] | –
CCOC(=O)C1=C2SCCN2C(=O)C(C#N)C1(C)C (stereo not given) | inconclusive: 15.8 µM [inhibitor, partial curve] | –
CC(C)c1ccc(NC(=O)c2cc3c(=O)[nH]c4ccccc4c3n2C)cc1 | – | inactive: -3.5% [at 76.3 µM]
Oc1sc(C=Nc2ccccc2)c2ccccc12 | inconclusive: 25.1 µM [inhibitor, single point] | –
Cn1c(=O)c2[nH]c(-c3ccccc3Cl)c(O)c2n(C)c1=O | inconclusive: 39.8 µM [inhibitor, single point] | –
CCN1CCc2c(sc(NC(=O)c3ccc(S(=O)(=O)N(CC)c4ccccc4)cc3)c2C(N)=O)C1 | inconclusive: 50.1 µM [activator, single point] | –
CCCCCCCC1(C)NC(=O)N(c2ccccc2)N1 (stereo not given) | active: 25.1 µM | –
O=S(=O)(Nc1ccccc1O)c1cccc2cccnc12 | inconclusive: 6.31 µM [inhibitor, full curve] | –
Cc1cc(Nc2cccc(Cl)c2)nc2ccc(NC(=O)COc3ccc(Cl)cc3)cc12 | – | inactive: 11.7% [at 76.3 µM]
Cc1c(N2C(=O)CSC2=S)c(=O)n(-c2ccccc2)n1C | inconclusive: 35.5 µM [inhibitor, single point] | –

From PubChem BioAssay AID2100 (National Center for Advancing Translational Sciences (NCATS), 2009)
